The record followed here is patent US6812335B1, “Human polypeptide receptors for lysophospholipids and sphingolipids and nucleic acids encoding the same” (The Regents of the University of California, priority 1999, dated 2004).

One assay has as its system Edg-4 receptor mRNA. The assay is described as follows: Effect of apoptotic stimuli on Edg-4 receptor mRNA expression in Tsup-1 cells (radioactive RT-PCR). The note with it: 16 h with apoptotic stimulus (30 ng anti-Fas; 0.5 ug each anti-CD3 and anti-CD28; 5 uM C6 ceramide). The method, then:
(§1) The methodology employed is more fully described in Goetzl et al., J. Immunol (1999), supra. Briefly, total cellular RNA was extracted from suspensions of Tsup-1 cells by the TRlzol method (Gibco-BRL, Grand Island, N.Y.), and a Superscript kit (Gibco-BRL) was used for reverse transcription (RT) synthesis of cDNAs. Polymerase chain reaction (PCR) began with a “hot start” at 94° C. for 3 min, Taq DNA polymerase was added and amplification was carried out with 35 cycles of 30 s at 94° C., 2 min at 55° C. and 1 min at 72° C. Two uCi of [alpha-^32P] dCTP were added to some sets of reaction mixtures to allow quantification of mRNA encoding each Edg receptor relative to that of the standard G3PDH. Kaltreider et al., Am J. Resp. Cell. Mol. Biol. 16:133 (1996).
(§2) Oligonucleotide primer pairs were: 5′-d[…] AAC (SEQ ID NO: 14) and 5′-d[…] (SEQ ID NO: 15) for G3PDH; 5′-[…] (SEQ ID NO: 16) and 5′-[…] (SEQ ID NO: 17) for Edg-1 (1100 bp); 5′-d[…] (SEQ ID NO: 18) and 5′-GTGGTC […] (SEQ ID NO: 19) for Edg-2 (621 bp); 5′-dCAAAATG […] (SEQ ID NO: 20) and 5′-d[…] CGTTC (SEQ ID NO: 21) for Edg-3 (701 bp); 5′-d[…] CGT (SEQ ID NO: 22) and 5′-d[…] […]
(§3) PCR products were resolved by electrophoresis in a 2 g/100 ml agarose gel with ethidium bromide staining. […] Relative quantities of cDNA encoding each Edg receptor also were calculated by the ratio of radioactivity to that in the corresponding G3PDH band. […]

In the next assay the test system is Edg-2 receptor mRNA. The assay is described as follows: Effect of apoptotic stimuli on Edg-2 receptor mRNA expression in Tsup-1 cells (radioactive RT-PCR). Conditions: 16 h with apoptotic stimulus (30 ng anti-Fas; 0.2 ug anti-CD2; 0.5 ug each anti-CD3 and anti-CD28; 5 uM C6 ceramide). The method, then:
as §1, §2, §3

In the next assay the test system is Edg-3 receptor mRNA. The assay is described as follows: Effect of apoptotic stimuli on Edg-3 receptor mRNA expression in Tsup-1 cells (radioactive RT-PCR). The note with it: 16 h with apoptotic stimulus (30 ng anti-Fas; 0.2 ug anti-CD2; 0.5 ug each anti-CD3 and anti-CD28; 5 uM C6 ceramide). The method, then:
as §1, §2, §3

Regarding `CCCCCCCCCCCCC/C=C/[C@@H](O)[C@H](CO)NC(=O)CCCCC` [C6-Ceramide, C6 ceramide], the “ratio of 32P in the Edg-4 receptor cDNA band to that in the G3PDH band” value in the assay on Edg-4 receptor mRNA is on record as 0.12. For the same compound, the “ratio of 32P in the Edg-2 receptor cDNA band to that in the G3PDH band” value with Edg-2 receptor mRNA is given as 0.05. In the assay with Edg-3 receptor mRNA, the “ratio of 32P in the Edg-3 receptor cDNA band to that in the G3PDH band” value was determined as 0.17.
